From the antibiotic and cytotoxicity screens of Wong et al. (2023)
The list shows a part of the results.

Test system: S. aureus RN4220
Experiment: growth inhibition call (relative growth <= 0.2)
Details: 50 µM

Growth inhibition call, inactive:
Cc1cccc(C)c1NC(=O)c1ccccc1C(=O)O
C[C@H]1CN([C@@H](C)CO)C(=O)c2c(c3ccccc3n2C)-c2ccccc2CO[C@@H]1CN(C)C(=O)Nc1cccc(Cl)c1Cl
CC(C)(C)[S@](=O)N1Cc2cc(C(=O)NCCc3ccncc3)nc(-c3cccc(-c4ccc(C#N)cc4)c3)c2[C@@H]1CCO
C[C@H](CO)N1C[C@H](C)[C@H](CN(C)C(=O)NC2CCCCC2)Oc2ccc(NC(=O)Nc3ccc(C(F)(F)F)cc3)cc2C1=O
Cc1noc(C)c1NC(=O)Nc1ccc2c(c1)C(=O)N([C@H](C)CO)C[C@H](C)[C@@H](CN(C)S(=O)(=O)c1cccs1)OCCCC[C@@H](C)O2
Cc1noc(C)c1S(=O)(=O)Nc1ccc2c(c1)CC(=O)N([C@H](C)CO)C[C@H](C)[C@@H](CN(C)C(=O)NC(C)C)O2
CC(C)NC(=O)N[C@@H]1CC[C@H](CCN)O[C@H]1CO
C[C@H](CO)N1C[C@H](C)[C@@H](CN(C)CC2CC2)Oc2ccc(NS(=O)(=O)c3cccs3)cc2CC1=O
C[C@@H]1CN([C@@H](C)CO)C(=O)c2cc(NS(=O)(=O)c3cccs3)ccc2O[C@@H]1CN(C)Cc1ccncc1
C[C@@H]1CN([C@H](C)CO)C(=O)CCCn2nncc2CO[C@@H]1CN(C)C(=O)Nc1ccnc(N2CCOCC2)c1
C=C(C)C1CCC2(C)CCC3(C)C(CCC4C5(C)CCC(OC(C)=O)C(C)(C)C5CCC43C)C12 (stereo not given)
C[C@@H]1CN([C@H](C)CO)C(=O)c2cc(NC(=O)Cc3cn(C)c4ccccc34)ccc2O[C@@H]1CN(C)CC1CCCCC1
CCOC(=O)c1cc(=O)c2cc([C@@H]3CC(=O)N(C(=O)OCc4ccccc4)[C@@H]3C(=O)Nc3cccc4cccnc34)ccc2o1
C[C@H](CO)N1C[C@H](C)[C@H](CN(C)S(C)(=O)=O)Oc2c(NC(=O)c3ccc(-c4nccs4)cc3)cccc2C1=O
C[C@@H]1CN([C@H](C)CO)C(=O)c2cccc(NC(=O)C3CCCCC3)c2O[C@H]1CN(C)Cc1ccc(C(F)(F)F)cc1
C[C@H](CO)N1C[C@H](C)[C@H](CN(C)S(=O)(=O)c2ccc(F)cc2)Oc2ccc(NS(=O)(=O)c3ccccc3)cc2CC1=O
C[C@@H]1CN([C@H](C)CO)S(=O)(=O)c2ccc(C#C[C@@H](C)O)cc2O[C@@H]1CN(C)C(=O)c1ccncc1
Cc1ccc(S[C@]2(C(=O)NCC(F)(F)F)CC(=O)N(Cc3ccccc3)[C@@H]2c2ccc(CO)cc2I)cc1
C[C@H]1CN([C@@H](C)CO)C(=O)c2cccc(NS(=O)(=O)c3ccccc3)c2O[C@@H]1CN(C)Cc1ccc(-c2ccccc2)cc1
CC/C(=C\C(=O)O)c1ccccc1
CC(C)CCCC(C)C1CCC2C3CC=C4CC(O)CCC4(C)C3CCC12C (stereo not given)
O=C(C[C@@H]1CC[C@H]2[C@@H](COC[C@H](O)CN2C(=O)c2ccc3c(c2)OCO3)O1)NCCN1CCCC1
COc1ccccc1CN(C)C[C@H]1OCc2ccccc2-c2c(n(C)c3ccccc23)C(=O)N([C@@H](C)CO)C[C@H]1C
C[C@@H]1CCCCO[C@H](CN(C)C(=O)Cc2ccccc2)[C@H](C)CN([C@@H](C)CO)C(=O)c2cc(NS(=O)(=O)c3cccs3)ccc2O1
COc1ccc(NC(=O)N(C)C[C@H]2Oc3c(NC(=O)c4ccc(-c5nccs5)cc4)cccc3C(=O)N([C@H](C)CO)C[C@@H]2C)cc1
O=C(O)[C@H]1CCCN1C(=O)c1cccnc1
C[C@@H]1CN([C@@H](C)CO)C(=O)c2cccc(NC(=O)Nc3ccc(C(F)(F)F)cc3)c2O[C@H]1CN(C)C(=O)Nc1ccccc1
CCNc1nc(SCC(N)=O)nc(N2CCOCC2)n1
NC(=O)[C@H]1[C@@H]2C(=O)O[C@@H](c3ccccc3)[C@@H](c3ccccc3)N2[C@@H](c2ccc(O)cc2)[C@]12C(=O)Nc1ccc(C#CC3(O)CCCCCC3)cc12
COc1ccccc1CN(C)C[C@@H]1OCc2ccccc2-c2c(n(C)c3ccccc23)C(=O)N([C@@H](C)CO)C[C@@H]1C
C[C@H](CO)N1C[C@H](C)[C@H](CN(C)C(=O)Nc2ccccc2C(F)(F)F)OCc2cnnn2CCCC1=O
C[C@@H]1CN([C@H](C)CO)S(=O)(=O)c2ccc(C#Cc3ccncc3)cc2O[C@@H]1CN(C)C(=O)Nc1ccc2c(c1)OCO2
COc1ccc(NC(=O)N(C)C[C@H]2Oc3ccc(NS(=O)(=O)c4c(C)noc4C)cc3C(=O)N([C@@H](C)CO)C[C@@H]2C)cc1
C[C@@H]1CN([C@H](C)CO)C(=O)c2cc(-c3ccc(F)cc3)cnc2O[C@H]1CN(C)C(=O)Cc1ccccn1
COc1ccc(S(=O)(=O)Nc2ccc3c(c2)C(=O)N([C@@H](C)CO)C[C@H](C)[C@H](CN(C)C(=O)NC2CCCCC2)OCCCC[C@@H](C)O3)cc1
N#C[C@@H]1[C@@H](c2ccc(C#Cc3ccccn3)cc2)[C@H](CO)N1C(=O)CN1CCOCC1
C[C@H]1CN([C@@H](C)CO)S(=O)(=O)c2ccc(C#CC3CCCC3)cc2O[C@H]1CN(C)C(=O)Cc1ccncc1
COc1ccc(CN(C)C[C@@H]2OCCCC[C@H](C)Oc3ccc(NS(=O)(=O)c4ccc(C)cc4)cc3C(=O)N([C@@H](C)CO)C[C@@H]2C)cc1
C[C@@H]1CN([C@@H](C)CO)C(=O)c2cc(NC(=O)Nc3ccc(F)cc3)ccc2O[C@@H](C)CCCCO[C@@H]1CN(C)C(=O)C1CCCCC1
C[C@@H]1CN([C@@H](C)CO)C(=O)c2cc(NS(C)(=O)=O)ccc2O[C@@H]1CN(C)Cc1ccc2c(c1)OCO2
